Data on 19 compounds can be found in PubChem BioAssay (NCATS).

Structures are written as SMILES. Records with an inconclusive call do not appear. Calls come from the whole dose curve; as a rule, active = well fitted curve in the direction sought with a large enough effect; inconclusive = small, poorly fitted or top-dose-only effect, or another doubt; inactive = no such curve, though single readings can be large; an effect the other way counts as inactive or inconclusive. More than one record can exist for a structure, and the calls need not agree. The source holds more than one record for some entries. They are shown here; other results are not. There may be further records. Values that stand side by side are repeats (runs, samples, wells, individuals or studies). A tag in brackets gives the origin of a value. Letters count within one entry.
Potency is the fitted concentration of half-maximal effect.

The nature of one assay: qHTS of pediatric cancer cell lines to identify multiple opportunities for drug repurposing: Primary screen for SK-N-MC cells (AID 1347093). Particulars: SK-N-MC viability, CellTiter-Glo luminescence, 48 h; series mostly up to 46 µM.
Turning to `CCC1(c2ccccc2)C(=O)NCNC1=O`, the Potency entry was “active: 935 nM [sample A] and inactive [sample B]”.

Consider `NC12CC3CC(CC(C3)C1)C2`, for which the Potency result was “active: 10.5 µM [sample A] and inactive [sample B]”.

With `CC(C)C(=O)Nc1ccc([N+](=O)[O-])c(C(F)(F)F)c1`, the Potency entry is “inactive [sample A] and active: 2.64 µM [sample B]”.

`Cc1cn([C@H]2C[C@H](N=[N+]=[N-])[C@@H](CO)O2)c(=O)[nH]c1=O`: the Potency entry is “active: 2.96 µM [sample A] and inactive [sample B]”.

Consider `Clc1ccc2nsnc2c1NC1=NCCN1`, for which the Potency entry was “active: 11.8 µM [sample A] and inactive [sample B]”.

Regarding `COc1ccccc1OCC(O)CN1CCN(CC(=O)Nc2c(C)cccc2C)CC1` (centres undefined), the Potency result is “inactive [sample A] and active: 23.5 µM [sample B]”.

In the case of `NC(=O)NO`, the Potency entry was “inactive [sample A] and active: 1.18 µM [sample B]”.

`Cn1cnc2c1c(=O)[nH]c(=O)n2C`: the Potency entry is “inactive [sample A] and active: 10.5 µM [sample B]”.

In the case of `Cc1cc(C(C)(C)C)c(O)c(C)c1CC1=NCCN1`, the Potency entry is “active: 16.6 µM [sample A] and inactive [sample B]”.

On to `CC(C(=O)O)c1cccc(C(=O)c2ccccc2)c1` (centres undefined), for which the Potency result is “inactive [sample A] and active: 16.6 µM [sample B]”.

Take `CN(C)CCOC(c1ccccc1)c1ccccc1`: the Potency result was “active: 5.9 µM [sample A] and inactive [sample B]”.

For the compound `Cc1cn([C@H]2C=C[C@@H](CO)O2)c(=O)[nH]c1=O`, the Potency result was “active: 48.1 µM [sample A] and inactive [sample B]”.

Take `CC12CC3CC(C)(C1)CC(N)(C3)C2`: the Potency result is “active: 5.9 µM [sample A] and inactive [sample B]”.

In the case of `Nc1nc2c(ncn2COC(CO)CO)c(=O)[nH]1`, the Potency entry was “active: 23.5 µM [sample A] and inactive [sample B]”.

A further assay in a line: qHTS of pediatric cancer cell lines to identify multiple opportunities for drug repurposing: Primary screen for BT-37 cells (AID 1347094). Particulars: BT-37 viability, CellTiter-Glo luminescence, 48 h; series mostly up to 57.3 µM. Summed up:
(§1)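 Quantitative HTS format: each compound titrated (MIPE 11 points from 0.78 nM, NPC 8 points from 0.59 nM) onto cells plated 5 hours earlier. After 48 h at 37 degrees C, CellTiter-Glo luminescence was recorded.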
Background: qHTS replaces the single test concentration by a dilution series.
Regarding `CC(COc1ccccc1)N(CCCl)Cc1ccccc1` (centres undefined), the Potency result is “inactive [sample A] and active: 8.63 µM [sample B]”.

On to `CC(C)(Oc1ccc(C2CC2(Cl)Cl)cc1)C(=O)O` (centres undefined), for which the Potency entry is “active: 39.5 µM [sample A] and inactive [sample B]”.

For the compound `NC(=O)NO`, the Potency result is “inactive [sample A] and active: 1.93 µM [sample B]”.

Take `Cn1cnc2c1c(=O)[nH]c(=O)n2C`: the Potency result is “inactive [sample A] and active: 27.3 µM [sample B]”.

On to `CC(C)NCC(O)c1ccc(O)c(O)c1` (centres undefined), for which the Potency result was “active: 13.7 µM [sample A] and inactive [sample B]”.

Take `Nc1nc2c(ncn2COC(CO)CO)c(=O)[nH]1`: the Potency entry is “active: 24.3 µM [sample A] and inactive [sample B]”.

The nature of the next assay: qHTS of pediatric cancer cell lines to identify multiple opportunities for drug repurposing: Primary screen for NB-EBc1 cells (AID 1347095). Particulars: NB-EBc1 neuroblastoma viability, CellTiter-Glo luminescence, 48 h; series mostly up to 46 µM.
For `CC(COc1ccccc1)N(CCCl)Cc1ccccc1` (centres undefined), the Potency result is “inactive [sample A] and active: 23.5 µM [sample B]”.

As for `CC(C)(Oc1ccc(C2CC2(Cl)Cl)cc1)C(=O)O` (centres undefined), the Potency result was “active: 3.4 µM [sample A] and inactive [sample B]”.

For the compound `NC(=O)NO`, the Potency result is “inactive [sample A] and active: 5.9 µM [sample B]”.

Turning to `Cn1cnc2c1c(=O)[nH]c(=O)n2C`, the Potency entry was “inactive [sample A] and active: 26.4 µM [sample B]”.

With `CC(C)NCC(O)c1ccc(O)c(O)c1` (centres undefined), the Potency result is “active: 14.8 µM [sample A] and inactive [sample B]”.

A further assay in a line: qHTS of pediatric cancer cell lines to identify multiple opportunities for drug repurposing: Primary screen for Saos-2 cells (AID 1347097). Note: nearly all actives have a fitted effect of over 40% in size. Particulars: Saos-2 viability, CellTiter-Glo ATP luminescence, 48 h; series mostly up to 46 µM. The method, boiled down: as §1
As for `NC(=O)NO`, the Potency entry is “inactive [sample A] and active: 2.09 µM [sample B]”.

For `Cn1cnc2c1c(=O)[nH]c(=O)n2C`, the Potency entry is “inactive [sample A] and active: 18.7 µM [sample B]”.

Turning to `Nc1nc2c(ncn2COC(CO)CO)c(=O)[nH]1`, the Potency entry was “active: 18.7 µM [sample A] and inactive [sample B]”.

The next assay can be described thus: qHTS of pediatric cancer cell lines to identify multiple opportunities for drug repurposing: Primary screen for SK-N-SH cells (AID 1347098). Note: nearly all actives have a fitted effect of over 65% in size. Particulars: SK-N-SH viability, CellTiter-Glo luminescence, 48 h; series mostly up to 57 µM. Summed up:
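Cells (500-1,000/well) rested 5 h, then received compounds for 48 h; metabolically active cells were measured by CellTiter-Glo luminescence. Final concentrations spanned up to 46 µM (MIPE, 11-point) or 0.59 nM-46 µM (NPC, 8-point) in primary screens, 11-point in follow-ups.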
Turning to `CCC1(c2ccccc2)C(=O)NCNC1=O`, the Potency entry is “active: 4.82 µM [sample A] and inactive [sample B]”.

Consider `CC1COc2c(N3CCN(C)CC3)c(F)cc3c(=O)c(C(=O)O)cn1c23` (centres undefined), for which the Potency result was “inactive [sample A] and active: 19.2 µM [sample B]”.

In the case of `NC12CC3CC(CC(C3)C1)C2`, the Potency result was “active: 24.1 µM [sample A] and inactive [sample B]”.

Take `COc1ccc2c(c1)c(CC(=O)O)c(C)n2C(=O)c1ccc(Cl)cc1`: the Potency result was “inactive [sample A] and active: 19.2 µM [sample B]”.

`CC(C)(Oc1ccc(C2CC2(Cl)Cl)cc1)C(=O)O` (centres undefined): the Potency entry was “active: 35 µM [sample A] and inactive [sample B]”.

As to `Cc1cn([C@H]2C[C@H](N=[N+]=[N-])[C@@H](CO)O2)c(=O)[nH]c1=O`, the Potency result was “active: 19.2 µM [sample A] and inactive [sample B]”.
